Assay results: PMC8167812 (Cell reports, 2021)

Target: Clr4 SET domain (residue 190–490) (fission yeast, UniProt O60016 190-490)
Assay: BLI

Binder	Kd [nM]	koff [s⁻¹]	kon [M⁻¹ s⁻¹]
Histone H3 tail peptide H3K9MK14C with a C-terminal biotinylated lysine (C-terminal biotinylated lysine) peptide: not shown	1420	0.0723	50800
Histone H3 tail peptide with K9M containing a ubiquitin mimic at H3K14 (H3K9MK14C peptide cross-linked to Ub-G76C) (complex) chain 1: not shown chain 2: not shown	–	0.0405	–
